# PubChem BioAssay AID651791 (National Center for Advancing Translational Sciences (NCATS), 2012)
# This list was built around the results that the source calls inconclusive (neither active nor inactive); the mix of calls is not that of the screen. Potencies of inconclusive entries are left out as doubtful fits. Active and inactive are the calls of the source. Calls come from the whole dose curve; as a rule, active = well fitted inhibition curve with a large enough effect; inconclusive = small, poorly fitted or top-dose-only effect; inactive = no such curve, though single readings can be large or run the other way.
# Assay: InCell qHTS Assay for Inhibitors of the mTORC1 Signaling Pathway in MEF (Tsc2-/-, p53-/-) Cells: Hit Validation;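 note: phospho-S6 Ser235/236 signal normalized to propidium iodide cell count per well; nearly all actives have a fitted effect of over 75% in size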
# Details: phospho-rpS6 immunofluorescence, 24 h
# Potency is the fitted concentration of half-maximal effect; tags give direction and shape of the fitted curve.
row,SMILES,Potency
1,CCCCS(=O)(=O)c1oc(-c2cccs2)nc1S(=O)(=O)c1ccccc1,active: 1.47 µM
2,CCc1ccc(C(=O)CC2(O)C(=O)N(Cc3ccc(C)cc3)c3ccccc32)cc1 (configuration not stated),"inconclusive [inhibitor, partial curve]"
3,O=C(Nc1ccccc1F)c1nc(S(=O)(=O)Cc2ccccc2F)ncc1Cl,"inconclusive [inhibitor, full curve, poor fit]"
4,Cc1[nH]c2ccccc2c1C1(O)C(=O)N(Cc2ccc(Cl)cc2)c2ccccc21 (configuration not stated),"inconclusive [inhibitor, partial curve]"
5,CCc1ccc(NC(=O)Cn2c(=O)n(-c3ccc(OC)cc3)c(=O)c3ccc(C(=O)NCc4ccc(C)cc4)cc32)cc1,active: 13.1 µM
6,N#Cc1ccccc1Cn1c(=O)n(CCCC(=O)NCc2ccccc2Cl)c(=O)c2ccccc21,"inconclusive [inhibitor, single point]"
7,COc1ccccc1NC(=O)CSc1nnc2c3ccccc3n(C(C)C)c2n1,"inconclusive [inhibitor, single point]"
8,CCN(CCCNC(=O)c1cc2c(=O)[nH]c3ccc(C)cc3c2s1)Cc1ccccc1,"inconclusive [inhibitor, single point]"
9,CCOCc1cc(CN2CCN(c3cccc(Cl)c3)CC2)c(O)c2ncccc12,"inconclusive [inhibitor, partial curve]"
10,COc1ccc(NC(=O)C(NC(=O)/C=C\c2ccc3c(c2)OCO3)c2ccccc2)cc1 (configuration not stated),"inconclusive [inhibitor, single point]"
11,Cc1cccc(OCC(=O)Nc2ccc(-c3nc4cc(C)ccc4o3)c(O)c2)c1,"inconclusive [inhibitor, single point]"
12,COC(=O)c1ccccc1NC(=O)CCS(=O)(=O)c1nc(-c2ccc3c(c2)OCO3)cc(C(F)(F)F)n1,"inconclusive [inhibitor, single point]"
13,CN(c1ccccc1)S(=O)(=O)c1ccc(NC(=O)c2nc(S(C)(=O)=O)ncc2Cl)cc1,active: 2.07 µM
14,COc1ccc(-c2cc(C(F)(F)F)nc(S(=O)(=O)CCCC(=O)Nc3ccccc3C(F)(F)F)n2)cc1OC,"inconclusive [inhibitor, single point]"
15,CCS(=O)(=O)c1ncc(Cl)c(C(=O)N2CCN(c3cccc(Cl)c3)CC2)n1,active: 2.61 µM
16,COc1ccc(C)cc1NC(=O)C(Cc1ccccc1)NS(=O)(=O)c1ccc(Br)s1 (configuration not stated),"inconclusive [inhibitor, single point]"
17,CCCCN(CCCNC(=O)c1cc(Nc2cccc(SC)c2)nc2ccccc12)Cc1ccccc1,"inconclusive [inhibitor, single point]"
18,COc1ccc2c(Sc3ccccc3)c(C(=O)NCCCN3CCCCC3)[nH]c2c1,"inconclusive [inhibitor, single point]"
19,CCS(=O)(=O)c1ncc(Cl)c(C(=O)N(Cc2ccccc2)c2ccc(OC)cc2)n1,active: 2.93 µM
20,COc1ccc(CNCCC(c2ccccc2)c2ccc3c(c2)OCO3)cc1 (configuration not stated),"inconclusive [inhibitor, single point]"
21,Cc1cccc(OCC(O)Cn2c(=N)n(CCN3CCCCC3)c3ccccc32)c1 (configuration not stated),"inconclusive [inhibitor, single point]"
22,Cc1ccc(C(=O)CC2(O)C(=O)N(Cc3ccccc3)c3ccc(Br)cc32)cc1 (configuration not stated),"inconclusive [inhibitor, single point]"
23,CCOc1ccc(NC(=O)CSc2c3c(nc4ccccc24)CCCC3)cc1,"inconclusive [inhibitor, single point]"
24,O=C(NCC1CCN(Cc2cccc(Cl)c2)CC1)Nc1ccc(F)c(Cl)c1,"inconclusive [inhibitor, single point]"
25,CCN(CC)S(=O)(=O)c1ccc(NC(=O)CCc2c(C)nc3cc(-c4ccc(Cl)cc4)nn3c2C)cc1,"inconclusive [inhibitor, full curve, poor fit]"
26,Cc1ccccc1Cn1c(CN2CCC(C(=O)NCCN(C)C)CC2)cc2ccccc21,"inconclusive [inhibitor, single point]"
27,CCc1ccc(-n2c(=O)c3c4c(sc3n(CC(=O)c3ccc(F)cc3)c2=O)CCC4)cc1,active: 9.27 µM
